PubChem BioAssay AID686979 (National Center for Advancing Translational Sciences (NCATS), 2013)
Out of some 420,000 compounds screened, about 50,000 (12%) were called active. The inconclusive results got no clear call from the source; some entries with a clear call stand among them for comparison. Calls come from the whole dose curve; as a rule, active = well fitted inhibition curve with a large enough effect; inconclusive = small, poorly fitted or top-dose-only effect; inactive = flat fitted curve, though single readings scatter. Potencies of inconclusive entries are left out as doubtful fits.

Experiment: qHTS for Inhibitors of human tyrosyl-DNA phosphodiesterase 1 (TDP1): qHTS in cells in presence of CPT; note: nearly all actives have a fitted effect of over 55% in size
Conditions: chicken DT40 Tdp1-/-;hTDP1 cells + 20 nM CPT, ATP luminescence, 48 h; activity change, negative = growth inhibition: at 46.2 µM (top of the series) unless noted
Procedure, shortened: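 Cell growth measured by CellTiter-Glo luminescence after a minimum 48 h, 37 C compound exposure with 20 nM CPT in Tdp1-knockout DT40 cells stably expressing hTDP1, seeded 400/well; qHTS titration format.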
% is set by controls: 0 for no effect and ±100 for the full control effect; potency is the fitted concentration of half-maximal effect; tags give direction and shape of the fitted curve.

SMILES	Potency	activity change, negative = growth inhibition
Cc1cc(-c2ccccc2)n2nc(-c3ccccc3)cc2n1	inactive	
COc1ccc([N+](=O)[O-])cc1NC(=O)CC1SC(=Nc2cccc(C)c2C)N(/N=C(\C)c2ccc(C)cc2)C1=O (centres undefined)	inactive	
COc1cccc(CNS(=O)(=O)c2ccc3c(c2)C(C(C)C)C(=O)N3)c1 (centres undefined)	inconclusive [inhibitor, single point]	
Cc1ccc(NC(=O)CCSc2nnc(Cc3ccccc3)o2)cc1	inactive	
CCCCc1c(-c2ccccc2OC)ncn1CCc1cccc(F)c1	active: 16.4 µM	
COc1ccccc1C(=O)Nc1c(C(=O)Nc2ccccc2F)oc2ccccc12	active: 20.6 µM	
CC(C)N1CCC(C)(C(=O)Nc2ccc(Cl)c(Cl)c2)C1 (centres undefined)	inconclusive [inhibitor, single point]	
COc1ccc(-c2nc3cnc(N4CCN(C)CC4)nc3n(Cc3cccc(OC)c3)c2=O)cc1	inconclusive [inhibitor, single point]	
Cc1ccc2cccc(NC(=O)C(C)Oc3ccc(Cl)cc3Cl)c2n1 (centres undefined)	inconclusive [inhibitor, single point]	
O=C(COC(=O)c1ccccc1NC(=O)c1ccco1)NCc1ccc2c(c1)OCO2	inconclusive [inhibitor, partial curve]	
Cc1nn(-c2ccc(C(=O)OC(C)C)cc2)c(C)c1[N+](=O)[O-]	inactive	
COCCCN=Cc1c(C)[nH]n(-c2ccc(Br)c(C)c2)c1=O	inconclusive [inhibitor, partial curve]	
Cc1cc(Cl)ccc1OCC(=O)N1CCC(c2nc3ccccc3s2)CC1	inconclusive [inhibitor, single point]	
CC(=O)c1ccc(NC(=O)CN(C)S(=O)(=O)c2cnc[nH]2)cc1	inactive	
O=C1NC(=O)/C(=C\c2ccccc2OCc2ccc([N+](=O)[O-])cc2)N1	inconclusive [inhibitor, single point]	
CCCCCOc1ccc(CSC(=N)N)cc1[N+](=O)[O-]	active: 14.6 µM	
COCCN(CCOC)S(=O)(=O)c1ccc(C(=O)Nc2nc3c(s2)CCc2ccccc2-3)cc1	active: 9.2 µM	
COc1ccc(CNC(=O)Nc2cn(CC(C)C)c(=O)c3ccccc23)cc1	inconclusive [inhibitor, partial curve, poor fit]	
Cc1ccn2c(Nc3ccc(C(C)C)cc3)c(-c3cccnc3)nc2c1	inconclusive [inhibitor, single point]	
Cc1c(C)c2c(OCC(=O)NCCCO)cc3c(c2oc1=O)CCC(C)(C)O3	inconclusive [inhibitor, single point]	
Cc1cc(Cl)c(OCCOCCN2CCCCC2)c(Br)c1	inactive	
C=CCNC(=O)c1onc(CSc2ccccc2CC)c1C(=O)O	inactive	
Cc1c(Cl)ccc2c1NC(=O)[C@]21N[C@@H](Cc2ccccc2)[C@H]2C(=O)N(c3ccc(F)cc3)C(=O)[C@H]21	inconclusive [inhibitor, single point]	
O=C(CCCn1c(=S)[nH]c2ccccc2c1=O)N1CCCCC1	inactive	
CC1CC(NC(=S)N(C)C)CC(C)(C)C1 (centres undefined)	inactive	

SMILES	Potency	activity change, negative = growth inhibition
CCCOc1ccc(F)cc1-c1cc(C(=O)Nc2cc(OC)ccc2OC)[nH]n1	inactive	
CC(=O)c1cccc(NS(=O)(=O)c2cc3c(cc2C)N(C(C)=O)CCO3)c1	inconclusive [inhibitor, partial curve]	
COc1ccc(C=C2Cc3ccccc3C2=O)cc1	inactive	
CCOC(=O)[C@]12CCCC=C1N(Cc1ccc3c(c1)OCO3)C(=O)[C@H](CC(=O)NCCCN1CCCC1=O)C2	inactive	
Cc1cccc(C)c1NC(=O)CNC(=O)c1cn(-c2ccccc2)nc1-c1ccccc1	inconclusive [inhibitor, single point]	
Cc1ccc2cc(CN(CC3CCCO3)C(=O)C(C)C)c(=O)[nH]c2c1 (centres undefined)	inactive	
O=C(CCCc1ccccc1)NC1CC(=O)N(c2ccc(F)cc2)C1 (centres undefined)	inconclusive [inhibitor, single point]	
N#C/C(=C(/O)COC(=O)CCc1ccc(S(=O)(=O)N2CCOCC2)cc1)c1nc2ccccc2[nH]1	active: 16.4 µM	
O=c1c2ccccc2nc(/C=C/c2ccc3c(c2)OCO3)n1CCCO	inactive	
CCn1c(-c2c[nH]c3ccccc23)n[nH]c1=S	inconclusive [inhibitor, full curve]	
N#CC(C#N)=C1c2cc(S(N)(=O)=O)ccc2-c2ccc(S(N)(=O)=O)cc21	active: 16.4 µM	
CCNC(=S)NNC(=O)c1cc(CC(C)C)nc2ccccc12	inconclusive [inhibitor, single point]	
CCCCCCC[n+]1ccc(/C=C/c2c[nH]c3ccccc23)c2ccccc21	active: 1 µM	
CCCN1C(=O)/C(=C/c2cc(C)n(C)c2C)SC1=Nc1ccc(OC)cc1	active: 13 µM	
CCN(CCO)Cc1csc2ccc(C(C)(C)C)cc12	inconclusive [inhibitor, single point]	
CN1C[C@@H]2C(c3ccccc3)C3(c4ccccc4)CC2(C3)[C@H]1c1ccccc1 (some centres undefined)	active: 25.9 µM	
COC(=O)c1sccc1NC(=O)c1cc(-c2ccc(C)cc2C)nc2ccccc12	inconclusive [inhibitor, single point]	
COc1ccc(CN2C(=O)CC(Cc3ccc(C)cc3)C2=O)cc1OC (centres undefined)	inactive	
CCOC(=O)c1nn(-c2ccc(Br)cc2)cc1C(=O)c1cccc2ccccc12	active: 8.2 µM	
O=C(O)CCc1ccc(-c2ccc(Br)cc2)n1-c1ccc(O)cc1		inconclusive: -31.3% [inhibitor]
Cn1cncc1C#Cc1ccc(N2C(c3ccsc3)=Cc3ccc(F)cc3C2c2c[nH]c3ccccc23)cc1 (centres undefined)	inconclusive [inhibitor, single point]	
CC(=O)NC(c1ccccc1)c1nc(-c2ccc(Cl)cc2)cs1 (centres undefined)	inconclusive [inhibitor, single point]	
Cc1ccc(-c2nn(-c3ccccc3)cc2CO)cc1	inactive	
CCCCCCn1c(-c2ccco2)nc2oc3cc(OC)ccc3c(=O)c2c1=O	inconclusive [inhibitor, single point]	
COc1cc(C2NC(=O)NC(C)=C2C(=O)OCc2ccc(C)cc2)cc(OC)c1OC (centres undefined)	inconclusive [inhibitor, partial curve]	

SMILES	Potency	activity change, negative = growth inhibition
Cc1ccc(NC(=O)N2CCC(CN3CCCC3)CC2)c(C)c1	inactive	
CCC(C)NCCCCOc1cc(C)cc(C(C)C)c1 (centres undefined)	inconclusive [inhibitor, partial curve]	
Cc1nc(N2CCCCC2)sc1C(=O)c1cccc([N+](=O)[O-])c1	inconclusive [inhibitor, single point]	
COc1ccc(CCn2c(=N)c(C(=O)NCC3CCCO3)cc3c(=O)n4cccc(C)c4nc32)cc1OC (centres undefined)	active: 5.17 µM	
COC(=O)C1CCN(S(=O)(=O)c2c[nH]c(=O)[nH]c2=O)CC1	inactive	
COc1ccc(C)cc1NC(=O)Cn1cnc2sc(C)c(S(=O)(=O)N3CCOCC3)c2c1=O	inactive	
C[C@@H](NC(=O)[C@@H]1CCCN1C(=O)OC(C)(C)C)c1ccccc1	inactive	
CCC(=O)Oc1ccc(C2Nc3ccccc3-c3nnc(SC)nc3O2)cc1 (centres undefined)	inactive	
CC1=C(C(=O)OC2CCCCCCC2)C(c2cc3c(cc2Br)OCO3)CC(=O)N1 (centres undefined)	inconclusive [inhibitor, single point]	
CCOC(=O)CNC(=O)N1C[C@H]2CON(C)[C@H]2C[C@H]1c1ccccc1Br	inactive	
CCOC(=O)c1ccc(N(CC2CO2)S(=O)(=O)c2ccc(C)cc2)cc1 (centres undefined)	active: 13 µM	
CCCOC(=O)c1c(NC(=O)/C=C/c2cnn(C)c2C)sc(C(=O)OC)c1C	inconclusive [inhibitor, single point]	
O=C(COc1ccc(S(=O)(=O)Nc2ccc(Cl)cc2)cc1)N1CCOCC1	inconclusive [inhibitor, single point]	
O=C(Nc1ccc(-c2nc3ccccc3[nH]2)cc1)C1CCCN(Cc2ccn[nH]2)C1 (centres undefined)	inconclusive [inhibitor, single point]	
Cc1cccc(NC(=O)C(Cc2ccccc2)NS(=O)(=O)c2ccc3c(c2)c(=O)n(C)c(=O)n3C)c1 (centres undefined)	inconclusive [inhibitor, single point]	
Cc1c(-c2nc(-c3ccc4c(c3)OCO4)no2)nnn1-c1ccc(C(C)C)cc1	inconclusive [inhibitor, single point]	
COc1ccc(OCC(=O)N2CCOCC2)cc1	inactive	
CCc1nn(CCCC(=O)N2CCN(c3cccc(OC)c3)CC2)c(=O)c2cc3occc3n12	inactive	
OC1CCCN(CC(O)c2ccccc2)C1 (centres undefined)	inactive	
O=C(NCc1nnc(SCC(=O)N2CCCCCC2)o1)c1ccccc1F	inactive	
O=C(CNC(=O)c1ccc(Cl)cc1Cl)OCc1ccccc1		inconclusive: -18.3% [inhibitor]
CCOC(=O)c1ccc(S(=O)(=O)NNC(=O)c2ccc3c(c2)nc(C)n3CC)cc1	inactive	
O=C(Cn1c(COc2ccccc2)nc2ccccc21)Nc1cccc(Cl)c1	inconclusive [inhibitor, single point]	
COC(=O)c1cc(C)nc2c1c(=O)nc(SCc1ccccc1C)n2C1CC1	inconclusive [inhibitor, partial curve]	
